From the supplement of paper PMC4967469
A lower IC50 marks a more sensitive line; fits outside the tested doses are given as limits. AUC is the area under the same curve over the 256-fold range up to the top dose, as a fraction; values near 1 show little effect. For part of these data: A top dose marked as inferred is not printed in the source and was worked back from the curve model. For part of these data: Drugs with an entry number were screened twice under separate entries, and the two screens often disagree.

Columns and labels:
Experiment in all cases: Viability of human cancer cell lines after 72 h of drug (GDSC screen)
LFM-A13 = compound: C/C(O)=C(\C#N)C(=O)Nc1cc(Br)ccc1Br [LFM-A13]; conditions: top dose 16 µM; top dose inferred
Procedure: (§1)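 Human cancer cell lines in 384-well plates, medium with 10% serum, drug for 72 h over a 256-fold dose range (nine 2-fold or five 4-fold steps up to the top dose). Adherent lines were fixed and stained with the nucleic acid dye Syto60, suspension lines read with resazurin; signal relative to control wells, capped at 0 and 100%. One two-parameter sigmoid per drug and line, fitted in a mixed model over all curves with the slope shared within a line.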

TW-37 = compound: CC(C)c1ccccc1Cc1cc(C(=O)Nc2ccc(S(=O)(=O)c3ccccc3C(C)(C)C)cc2)c(O)c(O)c1O [TW-37]; conditions: top dose 5 µM
Procedure: as §1

Bicalutamide = compound: CC(O)(CS(=O)(=O)c1ccc(F)cc1)C(=O)Nc1ccc(C#N)c(C(F)(F)F)c1 [Bicalutamide]; conditions: top dose inferred
Procedure: as §1

AUY922 = compound: CCNC(=O)c1noc(-c2cc(C(C)C)c(O)cc2O)c1-c1ccc(CN2CCOCC2)cc1 [AUY922]; conditions: top dose 0.256 µM; top dose inferred
Procedure: as §1

KIN001-270 = compound: Cc1ccc(Nc2cc(-c3cccc(N4C(=O)c5ccccc5C4=O)c3)ncn2)cc1NS(C)(=O)=O [KIN001-270]; conditions: top dose 20 µM; top dose inferred
Procedure: as §1

Gemcitabine = compound: Nc1ccn([C@@H]2O[C@H](CO)[C@@H](O)C2(F)F)c(=O)n1 [Gemcitabine]; conditions: top dose 1.024 µM
Procedure: as §1

T0901317 = compound: O=S(=O)(c1ccccc1)N(CC(F)(F)F)c1ccc(C(O)(C(F)(F)F)C(F)(F)F)cc1 [T0901317]; conditions: top dose 10.24 µM; top dose inferred
Procedure: as §1

MP470 = compound: S=C(NCc1ccc2c(c1)OCO2)N1CCN(c2ncnc3c2oc2ccccc23)CC1 [MP470]; conditions: top dose 20 µM; top dose inferred
Procedure: as §1

[1] = top dose 1.024 µM, screen: GDSC drug entry 150
[2] = top dose 10 µM, screen: GDSC drug entry 1502

Cell Line	AUC (LFM-A13)	IC50 (LFM-A13) [nM]	AUC (TW-37)	IC50 (TW-37) [nM]	AUC (Bicalutamide; [1])	IC50 (Bicalutamide; [1]) [nM]	AUC (Bicalutamide; [2])	IC50 (Bicalutamide; [2]) [nM]	AUC (AUY922)	IC50 (AUY922) [nM]	AUC (KIN001-270)	IC50 (KIN001-270) [nM]	AUC (Gemcitabine)	IC50 (Gemcitabine) [nM]	AUC (T0901317)	IC50 (T0901317) [nM]	AUC (MP470)	IC50 (MP470) [nM]
NCI-H1573 (lung adenocarcinoma, adherent)	0.991	> 16000	0.869	4380	0.991	> 1020	0.98	> 10000	0.895	> 256	0.984	> 20000	0.962	> 1020	0.982	> 10200	0.946	> 20000
HCC1806 (breast, adherent)	0.989	> 16000	0.775	1820	0.985	> 1020	0.985	> 10000	0.788	102	0.978	> 20000	0.128	4.87	0.972	> 10200	0.959	> 20000
KYSE-270 (oesophagus, adherent)	0.973	> 16000	0.477	273	0.983	> 1020	0.985	> 10000	0.479	14.2	0.97	> 20000	0.103	4.37	0.978	> 10200	0.951	> 20000
LCLC-97TM1 (large cell lung carcinoma, adherent)	0.956	> 16000	0.657	893	0.98	> 1020	0.978	> 10000	0.435	10.4	0.942	> 20000	0.102	< 4	0.936	> 10200	0.738	6470
RD (rhabdomyosarcoma, adherent)	0.943	> 16000	0.635	768	0.985	> 1020	0.98	> 10000	0.483	14.4	0.946	> 20000	0.531	78.6	0.985	> 10200	0.922	> 20000
PL18 (pancreas, adherent)	0.987	> 16000	0.799	2370	0.986	> 1020	0.986	> 10000	0.55	21.8	0.974	> 20000	0.345	23.9	0.978	> 10200	0.936	> 20000
CAMA-1 (breast, adherent)	0.977	> 16000	0.605	652	0.924	> 1020	0.961	> 10000	0.702	69.3	0.951	> 20000	0.723	327	0.969	> 10200	0.893	> 20000
SISO (cervix, adherent)	0.965	> 16000	0.311	94.9	0.988	> 1020	0.957	> 10000	0.83	151	0.988	> 20000	0.209	9.31	0.986	> 10200	0.985	> 20000
RERF-GC-1B (stomach, adherent)	0.976	> 16000	0.442	212	0.981	> 1020	0.97	> 10000	0.59	29	0.951	> 20000	0.937	> 1020	0.948	> 10200	0.937	> 20000
NCI-H522 (lung adenocarcinoma, adherent)	0.964	> 16000	0.773	2310	0.984	> 1020	0.954	> 10000	0.512	17.4	0.978	> 20000	0.245	10.1	0.972	> 10200	0.976	> 20000
PCI-6A (head and neck, adherent)	0.985	> 16000	0.59	547	0.988	> 1020	0.974	> 10000	0.669	46.8	0.988	> 20000	0.204	8.72	0.978	> 10200	0.953	> 20000
NCI-H2342 (lung adenocarcinoma, adherent)	0.972	> 16000	0.435	204	0.984	> 1020	0.975	> 10000	0.454	11.9	0.985	> 20000	0.188	6.62	0.985	> 10200	0.74	6610
C32 (melanoma, adherent)	0.974	> 16000	0.78	2200	0.986	> 1020	0.984	> 10000	0.671	49.5	0.982	> 20000	0.912	> 1020	0.982	> 10200	0.903	> 20000
JIMT-1 (breast, adherent)	0.97	> 16000	0.522	361	0.985	> 1020	0.967	> 10000	0.479	14	0.974	> 20000	0.382	29.5	0.977	> 10200	0.912	> 20000
OSC-19 (head and neck, adherent)	0.985	> 16000	0.603	608	0.987	> 1020	0.983	> 10000	0.5	16	0.979	> 20000	0.643	162	0.987	> 10200	0.96	> 20000
RERF-LC-KJ (lung adenocarcinoma, adherent)	0.969	> 16000	0.727	1410	0.985	> 1020	0.985	> 10000	0.698	58.7	0.985	> 20000	0.802	521	0.987	> 10200	0.97	> 20000
TCCSUP (bladder, adherent)	0.972	> 16000	0.485	283	0.965	> 1020	0.98	> 10000	0.969	> 256	0.98	> 20000	0.864	> 1020	0.975	> 10200	0.969	> 20000
SK-MEL-28 (melanoma, adherent)	0.985	> 16000	0.681	992	0.983	> 1020	0.977	> 10000	0.941	> 256	0.973	> 20000	0.987	> 1020	0.978	> 10200	0.965	> 20000
GCT (soft tissue, adherent)	0.949	> 16000	0.456	239	0.989	> 1020	0.986	> 10000	0.665	44.4	0.985	> 20000	0.76	338	0.989	> 10200	0.975	> 20000
SF295 (glioma, adherent)	0.945	> 16000	0.523	363	0.975	> 1020	0.931	> 10000	0.525	18.9	0.976	> 20000	0.272	13.5	0.971	> 10200	0.952	> 20000
NCI-H1651 (lung adenocarcinoma, adherent)	0.977	> 16000	0.635	762	0.981	> 1020	0.969	> 10000	0.558	23.3	0.983	> 20000	0.373	27.7	0.987	> 10200	0.957	> 20000
NCI-H647 (non-small cell lung carcinoma, adherent)	0.954	> 16000	0.543	413	0.985	> 1020	0.59	1120	0.63	37.1	0.976	> 20000	0.417	37.4	0.905	> 10200	0.66	3560
OAW-42 (ovary, adherent)	0.95	> 16000	0.565	479	0.974	> 1020	0.969	> 10000	0.62	35.3	0.985	> 20000	0.566	98.5	0.951	> 10200	0.814	12000
COR-L105 (lung adenocarcinoma, adherent)	0.946	> 16000	0.63	772	0.982	> 1020	0.965	> 10000	0.564	24.9	0.933	> 20000	0.405	33	0.957	> 10200	0.791	11300
SW900 (lung squamous cell carcinoma, adherent)	0.958	> 16000	0.794	2730	0.973	> 1020	0.958	> 10000	0.853	254	0.985	> 20000	0.649	178	0.985	> 10200	0.984	> 20000
MS751 (cervix, adherent)	0.988	> 16000	0.541	400	0.99	> 1020	0.989	> 10000	0.842	159	0.99	> 20000	0.579	103	0.989	> 10200	0.948	> 20000
Hs766T (pancreas, adherent)	0.953	> 16000	0.864	> 5000	0.984	> 1020	0.982	> 10000	0.983	> 256	0.981	> 20000	0.917	> 1020	0.975	> 10200	0.962	> 20000
H3255 (lung adenocarcinoma, adherent)	0.983	> 16000	0.535	395	0.984	> 1020	0.946	> 10000	0.761	108	0.972	> 20000	0.541	84.8	0.982	> 10200	0.951	> 20000
OVISE (ovary, adherent)	0.942	> 16000	0.536	405	0.981	> 1020	0.971	> 10000	0.698	69.8	0.978	> 20000	0.61	142	0.981	> 10200	0.936	> 20000
HCC-827 (lung adenocarcinoma, adherent)	0.97	> 16000	0.503	320	0.985	> 1020	0.982	> 10000	0.708	68.1	0.982	> 20000	0.97	> 1020	0.984	> 10200	0.973	> 20000
